From PubChem BioAssay AID445 (National Center for Advancing Translational Sciences (NCATS), 2006)
Hit rate of the full screen: of about 110,000 compounds, about 40 (0.04%) were called active. This list was built around the results that the source calls inconclusive (neither active nor inactive); the mix of calls is not that of the screen. Calls follow the shape of the dose curve; as a rule, active = well fitted curve in the direction sought with a large enough effect in the signal ratio (not every such curve was filed as active); inconclusive = small, poorly fitted or top-dose-only effect, or a change in a side signal; inactive = flat fitted curve, though single readings scatter; the % refers to the signal ratio. Potencies beside an inconclusive call are fits to weak or partial responses and may not hold up.

Assay: IkB Signaling;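 as to IkBa stabilization activation: 0% = basal untreated cells and 100% = reference inhibitor full response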
Details: ABC-DLBCL IkBa-CBG/CBR dual luciferase ratio (green luciferase fused to IkBa over red control in OCI-Ly3 lymphoma cells), 4 h; IkBa stabilization activation: at 57.1 µM (top of the series), scaled: untreated 0%, proteasome inhibitor 100% unless noted
How it was run: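 Curves were fitted separately to fusion (green), unfused (red) and ratio luminescence, then classed by r2, magnitude and activity. Cells: OCI-Ly3, 4 h compound plus doxycycline at 37C; 10 uM MG-132 defined full response.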
Potency is read from the fitted curve at half-maximal effect.

Row | Compound | IkBa stabilization activation | Potency
1 | CCC1CN(C(=O)N2CCC(C(=O)NCCc3cc(OC)ccc3OC)CC2)c2ccccc2O1 (centres undefined) | inactive | 
2 | CCn1c(CN2CCOCC2)nc2cc(NC(=O)c3ccccc3[N+](=O)[O-])ccc21 | inconclusive: 9.02% [signal inhibitor] | 
3 | CCN(c1cccc(C(F)(F)F)c1)S(=O)(=O)c1ccc2c(c1)CCN2C(=O)C1CC1 | inconclusive: 5.42% [signal inhibitor] | 
4 | Cc1ccc(NC(=O)N2CCc3cc(S(=O)(=O)N4CCC(C)CC4)ccc32)cc1 | inactive | 
5 | COc1cccc(-n2cc(C(=O)Nc3cccc(C(F)(F)F)c3)c3ccccc3c2=O)c1 | inconclusive: 7.06% [signal inhibitor] | 
6 | CC(=O)Nc1cc(-c2nc3cc(Cl)ccc3o2)ccc1C | inconclusive: 6.36% [signal inhibitor] | 
7 | COc1ccc(NC(=O)CCS(=O)(=O)c2nc(-c3cccs3)cc(C(F)(F)F)n2)cc1 | inconclusive: -1.08% [signal inhibitor] | 
8 | Cc1nn2c(CN(C(=O)c3ccco3)c3ccccc3)nnc2c2ccccc12 | inconclusive: 2.02% [signal inhibitor] | 
9 | COc1cccc(C2c3c(oc4cc(C)cc(C)c4c3=O)C(=O)N2CCc2ccc(OC)c(OC)c2)c1 (centres undefined) | inconclusive: 2.25% [signal inhibitor] | 
10 | CCn1c(SCc2ccccc2C)nc(=O)c2c(C(=O)OC)cc(C3CC3)nc21 | inconclusive: -1.68% [signal inhibitor] | 
11 | Cc1ccc2c(c1)c1c(c(=O)n(-c3cccc(Cl)c3)c(=O)n1CC(=O)NCCC1=CCCCC1)n2C | inactive | 
12 | COc1ccccc1CNC(=O)CCC1N=C2c3ccccc3N=C(SCC(=O)Nc3ccc(F)cc3)N2C1=O (centres undefined) | inconclusive: 20.7% [signal inhibitor] | 
13 | COc1ccc(CNc2nc(-c3ccccc3)nn2S(=O)(=O)c2ccccc2)cc1 | inactive | 
14 | COc1ccc(-c2nc(Cn3c(SCc4cccc(F)c4)nc4ccncc43)c(C)o2)cc1OC | inactive | 
15 | Cc1cccn2c(=O)c3cc(C(=O)NCc4cccnc4)c(=N)n(C(C)C)c3nc12 | inactive | 
16 | CCc1ccc(NS(=O)(=O)c2ccc3oc(=O)c4ncn(CC)c4c3c2)cc1 | inconclusive: 9.79% [signal inhibitor] | 
17 | O=c1cc(CSc2ncn[nH]2)[nH]c2ccc(F)cc12 | inactive | 
18 | COc1ccc(-n2c(Cc3ccccc3)nnc2SCc2nc(-c3cccs3)no2)cc1 | inconclusive: 0.926% [signal inhibitor] | 
19 | Cc1ccc(-c2cc(C(=O)NCc3cnn(C)c3C)c3ccccc3n2)cc1C | inconclusive: -0.797% [signal inhibitor] | 
20 | O=C(C1Cc2ccccc2CN1S(=O)(=O)c1ccc(F)cc1)N1CCCCCC1 (centres undefined) | inconclusive: 4.3% [signal inhibitor] | 
21 | N#Cc1c(-c2cccs2)cc(-c2cccnc2)nc1N | inactive | 
22 | N#Cc1ccc(S(=O)(=O)N2CCC(Oc3cccc(C(F)(F)F)c3)CC2)cc1 | inconclusive: 1.07% [signal inhibitor] | 

Row | Compound | IkBa stabilization activation | Potency
23 | O=C(NCc1cccs1)c1nn(-c2ccccc2Cl)nc1CO | inconclusive: -3.39% [signal inhibitor] | 
24 | COC(=O)c1ccc(CSc2nc(C)nc3c2c(=O)n(C)c(=O)n3C)o1 | inactive | 
25 | Cc1[nH]n(-c2ccccc2)c(=O)c1C(c1cc(Cl)ccc1O)c1c(C)[nH]n(-c2ccccc2)c1=O |  | inconclusive: 15.8 µM [signal inhibitor, partial curve]
26 | CCOC(=O)C1=C(C)NC(SCC(=O)Nc2cc(C)on2)=C(C#N)C1c1cccs1 (centres undefined) | inconclusive: 1.04% [signal inhibitor] | 
27 | O=C(NCCc1csc(-c2ccc(C(F)(F)F)cc2)n1)c1ccc(F)c(F)c1 | inconclusive: -2.09% [signal inhibitor] | 
28 | CCOc1ccc(-c2cc(CCCC(=O)NCCc3ccc(Cl)cc3)no2)cc1 | inconclusive: 7.02% [signal inhibitor] | 
29 | COC(=O)c1c(-c2cccs2)csc1NC(=O)c1ccc(Br)cc1 | inconclusive: 0.905% [signal inhibitor] | 
30 | CCN(c1cccc(C)c1)S(=O)(=O)c1ccc(-n2cccn2)cc1 | inconclusive: 0.323% [signal inhibitor] | 
31 | Cc1nc(Nc2ccncc2)c2oc3ccccc3c2n1 |  | inconclusive: 31.6 µM [rising, single point]
32 | S=C(NC1CCCCC1)NC1CCCCC1 | inactive | 
33 | CC(C)C[C@@H](CC(=O)N[C@@H](CCCN)CC(=O)N[C@@H]1CCCC[C@H]1C(=O)N[C@H](CC(=O)N[C@@H](CCC(=O)O)CC(=O)O)Cc1c[nH]c2ccccc12)NC(=O)[C@@H]1CCCC[C@H]1N | inactive | 
34 | Cc1ccc(CN(Cc2ccco2)C(=O)c2ccc(Cl)cc2Cl)cc1 | inconclusive: -1.39% [signal inhibitor] | 
35 | Cc1cccc(NC(=O)CSc2ncc(-c3ccc(Br)cc3)[nH]2)c1 |  | inconclusive: 25.1 µM [signal activator]
36 | Cc1cccc(-c2nc(CCNC(=O)COc3ccccc3)cs2)c1 | inconclusive: -2.59% [signal inhibitor] | 
37 | COC(=O)c1ccc(NC(=O)CN2CCCN(Cc3ccc(Cl)cc3)S2(=O)=O)cc1 | inactive | 
38 | CN(C)CCNC(=O)c1ccc(-n2c(-c3ccccc3)cc3c2CCCCC3)cc1 | inconclusive: -0.27% [signal inhibitor] | 
39 | Oc1ccc(-c2[nH]ncc2-c2ccc(Cl)cc2)c(O)c1 | inconclusive: 6.25% [signal inhibitor] | 
40 | CC(C)Oc1ccc(CN2CCc3nc(Nc4ccc5c(c4)OCCO5)ncc3C2)cc1 | inconclusive: 10.2% [signal inhibitor] | 
41 | O=C1c2ccccc2S(=O)(=O)N1CC(O)Cn1c2ccccc2c2ccccc21 (centres undefined) | inconclusive: 7.7% [signal inhibitor] | 
42 | Fc1ccc2nc(Nc3nc4c(s3)CCCC4)sc2c1 | inconclusive: 1.76% [signal inhibitor] | 
43 | Cc1ccc(C(=O)Nc2ccccc2C(=O)OCc2cc(=O)n3nc(C(C)C)sc3n2)cc1 | inactive | 
44 | Cc1nc2nc(Cc3ccccc3)[nH]n2c(=O)c1Cl |  | inconclusive: 31.6 µM [signal inhibitor, single point]
